Assay results reported in the supplement of paper PMC12067093, “Discovery and optimisation of a covalent ligand for TRIM25 and its application to targeted protein ubiquitination” (Chemical Science, 2025).
Targets with the largest changes are over-represented here; the source holds about 21,000 in all.

Compound: CC1Cc2ccccc2N1C(=O)C1CCCN(C1)C(=O)CCl (mixture of isomers) [TRIM25 ligand 11 (diastereomer mixture)]
Assay: probe-labelled cysteine peptide fold change vs DMSO (competition) (log2 fold change); higher = less target engagement (more negative = stronger competition)
Details: THP-1, incubation time: 4 h
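Further: competitive chemoproteomic profiling in live THP-1 cells with an iodoacetamide desthiobiotin (IA-DTB) probe, comparing probe-labelled peptide intensities in compound-treated cells against DMSO-treated controls.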

Row | Target | probe-labelled cysteine peptide fold change (10 µM) | probe-labelled cysteine peptide fold change (50 µM)
1 | LENG9_Q96B70_7_GSRPPCGATSSAR (UniProt Q96B70) | 0.671 | 0.504
2 | JAK1_P23458_257_TICDSSVSTHDLK (UniProt P23458) | 0.0925 | -0.0679
3 | IRF2BP2_Q7Z5L9_40_GCVNYEGADRVEFVIETAR (UniProt Q7Z5L9) | -0.162 | 0.0536
4 | KPNA6_O60684_427_YLVSLGCIKPLCDLLTVMDSK (UniProt O60684) | -0.563 | -0.279
5 | KLHL26_Q53HC5_38_CTFSAPSHSTSLLQGLATLR (UniProt Q53HC5) | 0.348 | 0.0962
6 | LIG1_P18858_508_QTFCEVPDLDR (UniProt P18858) | 0.039 | -0.0301
7 | IDE_P14735_171_FAQFFLCPLFDESCK (UniProt P14735) | 0.0536 | -0.153
8 | LRRC8A_Q8IWT6_776_LECLPVELGECPLLK (UniProt Q8IWT6) | -0.489 | 0.0904
9 | LMNA_P02545_570_SVTVVEDDEDEDGDDLLHHHHGSHCSSSGDPAEYNLR (UniProt P02545) | 0.719 | 0.0524
10 | IFI35_P80217_193_LCQIGQFTVPLGGQQVPLR (UniProt P80217) | 0.107 | 0.228
11 | INTS13_Q9NVM9_178_MLEDCVQETIHEHNK (UniProt Q9NVM9) | -0.112 | 0.0281
12 | LENG8_Q96PV6_584_SLCMVK (UniProt Q96PV6) | -0.0796 | -0.141
13 | KEAP1_Q14145_368_SGLAGCVVGGLLYAVGGR (UniProt Q14145) | -0.0944 | 0.0274
14 | ILK_Q13418_42_LWLDNTENDLNQGDDHGFSPLHWACR (UniProt Q13418) | -0.0686 | 0.126
15 | HUWE1_Q7Z6Z7_3658_AQCETLSPDGLPEEQPQTTK (UniProt Q7Z6Z7) |  | -0.227
16 | KIAA0753_Q2KHM9_745_QLDDFLEDCASELWAVTHAK (UniProt Q2KHM9) | -0.271 | -0.0783
17 | KYAT3_Q6YP21_313_HLQTVQQNTIYTCATPLQEALAQAFWIDIKR (UniProt Q6YP21) | 0.0989 | -0.0185
18 | ITSN2_Q9NZM3_530_QCDLEIMEIK (UniProt Q9NZM3) | -0.0296 | -0.0823
19 | IQGAP1_P46940_57_RWMEACLGEDLPPTTELEEGLR (UniProt P46940) | 0.11 | -0.0666

Row | Target | probe-labelled cysteine peptide fold change (10 µM) | probe-labelled cysteine peptide fold change (50 µM)
20 | LRRC59_Q96AG4_48_ATILDLSCNK (UniProt Q96AG4) | -0.0218 | -0.245
21 | KDM4B_O94953_13_GSEDHGAQNPSCK (UniProt O94953) | -0.105 | -0.0685
22 | IPO13_O94829_951_EFTLLCR (UniProt O94829) | 0.0121 | 0.182
23 | KIF5B_P33176_632_ELAACQLR (UniProt P33176) | -0.102 | 0.0204
24 | LRP1B_Q9NZR2_1079_DCEDGSDEK (UniProt Q9NZR2) | 0.738 | 0.352
25 | HUWE1_Q7Z6Z7_1832_HIIEDPCTLR (UniProt Q7Z6Z7) | -0.0176 | -0.0105
26 | LSM12_Q3MHD2_43_CPSSSGKPNHADILLINLQYVSEVEIINDRTETPPPLASLNVSK (UniProt Q3MHD2) | -0.224 | -0.151
27 | KDM3B_Q7LBC6_1357_ACNLTDTQK (UniProt Q7LBC6) | 0.628 | 0.354
28 | ITPK1_Q13572_137_KIEAYMEDDRICSPPFMELTSLCGDDTMR (UniProt Q13572) | -0.151 | 0.168
29 | IP6K1_Q92551_275_VCGMQVYQLDTGHYLCR (UniProt Q92551) | 0.111 | -0.0704
30 | ITPR1_Q14643_638_FLDYLSDLCVSMNK (UniProt Q14643) | 0.0134 | 0.00777
31 | INF2_Q27J81_758_QLPIFCQLILR (UniProt Q27J81) | -0.0235 | -0.0449
32 | LRCH1_Q9Y2L9_613_VSLHEDLGAALMDGVVLCHLVNHIRPR (UniProt Q9Y2L9) | -0.0397 | -0.122
33 | KDM2B_Q8NHM5_699_FNLMLMECSICNEIIHPGCLK (UniProt Q8NHM5) | 0.13 | -0.134
34 | INF2_Q27J81_104_ISDALLQLTCVSCVR (UniProt Q27J81) | 0.553 | 1.47
35 | KMT5C_Q86Y97_231_NEHCECHTCER (UniProt Q86Y97) | 0.222 | 0.00261
36 | INPPL1_O15357_689_TNVPSWCDR (UniProt O15357) | 0.019 | 0.159
37 | ITGA4_P13612_183_IAPCYQDYVK (UniProt P13612) | 0.0632 | 0.141
38 | IRF2BPL_Q9H1B7_385_DTLLTLAGCTPYEVR (UniProt Q9H1B7) | 0.111 | 0.0542
